Results published in PMC3736832 (Oncogene, 2012).

Biological target: His-RPS14 (human, UniProt P62263)
Assay: pull-down

- binding result: binds
B1: GST-MDM2/[…] (domain or fragment)
chain: MCNTNMSVPTDGAVTTSQIPASEQETLVRPKPLLLKLLKSVGAQKDTYTMKEVLFYLGQYIMTKRLYDEKQQHIVYCSNDLLGDLFGVPSFSVKEHRKIYTMIYRNLVVVNQQESSDSGTSVSENRCHLEGGSDQKDLVQELQEEKPSSSHLVSRPSTSSRRRAISETEENSDELSGERQRKRHKSDSISLSFDESLALCVIREICCERSSSSESTGTPSNPDLDAGV[omitted - about 80 residues]
